The text below walks through data of publication PMC3042207.

As usually defined, the Km is the substrate concentration at which the rate is half of its maximum.

Substrate in the data set: CC1=C(/C=C/C(C)=C/C=C/C(C)=C/C(=O)Nc2ccc(O)cc2)C(C)(C)CCC1
The experiment in a line: Metabolism of 4-HPR by CYP3A4 supersomes. In kind it is in vitro ADME, human. Conditions: other: CYP3A4 supersomes; 4-HPR 0-20 µM, 3 h; 37.0 °C.

Where “and” joins values, the source holds several entries; their conditions need not be identical. Equal values may be shown once.

B1: CYP3A4 (Homo sapiens) (protein)
chain: MALIPDLAMETWLLLAVSLVLLYLYGTHSHGLFKKLGIPGPTPLPFLGNILSYHKGFCMFDMECHKKYGKVWGFYDGQQPVLAITDPDMIKTVLVKECYSVFTNRRPFGPVGFMKSAISIAEDEEWKRLRSLLSPTFTSGKLKEMVPIIAQYGDVLVRNLRREAETGKPVTLKDVFGAYSMDVITSTSFGVNIDSLNNPQDPFVENTKKLLRFDFLDPFFLSITVFPFLIPILEVLNICVFPREVTNFLRKSVKRMKESRLEDTQKHRVDFLQLMIDSQNSKETESHKALSDLELVAQSIIFIFAGYETTSSVLSFIMYELATHPDVQQKLQEEIDAVLPNKAPPTYDTVLQMEYLDMVVNETLRLFPIAMRLERVCKKDVEINGMFIPKGVVVMIPSYALHRDPKYWTEPEKFLPERFSKKNKDNIDPYIYTPFGSGPRNCIGMRFALMNMKLALIRVLQNFSFKPCKETQIPLKLSLGGLLQPEKPVVLKVESRDGTVSGA
Turning to B1, the Km is 2.8 ± 1.1 µM and 4.8 ± 1.2 µM.
